From article PMC4336329 (PLoS ONE, 2015)
The whole screen tested about 310,000 compounds, of which about 14,000 (4.5%) showed an effect of 50% or more. Effects have a minus sign here. The list shows a part of the results.

What follows are compounds tested against human ether-à-go-go-related gene (hERG) potassium channel (human, UniProt Q12809) (assay: primary screen, population patch clamp on CHO cells stably expressing hERG).
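Note: peak tail current of the secondary pulse compared with the same well before compound.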

Sequence of human ether-à-go-go-related gene (hERG) potassium channel (Q12809 whole entry, looked up): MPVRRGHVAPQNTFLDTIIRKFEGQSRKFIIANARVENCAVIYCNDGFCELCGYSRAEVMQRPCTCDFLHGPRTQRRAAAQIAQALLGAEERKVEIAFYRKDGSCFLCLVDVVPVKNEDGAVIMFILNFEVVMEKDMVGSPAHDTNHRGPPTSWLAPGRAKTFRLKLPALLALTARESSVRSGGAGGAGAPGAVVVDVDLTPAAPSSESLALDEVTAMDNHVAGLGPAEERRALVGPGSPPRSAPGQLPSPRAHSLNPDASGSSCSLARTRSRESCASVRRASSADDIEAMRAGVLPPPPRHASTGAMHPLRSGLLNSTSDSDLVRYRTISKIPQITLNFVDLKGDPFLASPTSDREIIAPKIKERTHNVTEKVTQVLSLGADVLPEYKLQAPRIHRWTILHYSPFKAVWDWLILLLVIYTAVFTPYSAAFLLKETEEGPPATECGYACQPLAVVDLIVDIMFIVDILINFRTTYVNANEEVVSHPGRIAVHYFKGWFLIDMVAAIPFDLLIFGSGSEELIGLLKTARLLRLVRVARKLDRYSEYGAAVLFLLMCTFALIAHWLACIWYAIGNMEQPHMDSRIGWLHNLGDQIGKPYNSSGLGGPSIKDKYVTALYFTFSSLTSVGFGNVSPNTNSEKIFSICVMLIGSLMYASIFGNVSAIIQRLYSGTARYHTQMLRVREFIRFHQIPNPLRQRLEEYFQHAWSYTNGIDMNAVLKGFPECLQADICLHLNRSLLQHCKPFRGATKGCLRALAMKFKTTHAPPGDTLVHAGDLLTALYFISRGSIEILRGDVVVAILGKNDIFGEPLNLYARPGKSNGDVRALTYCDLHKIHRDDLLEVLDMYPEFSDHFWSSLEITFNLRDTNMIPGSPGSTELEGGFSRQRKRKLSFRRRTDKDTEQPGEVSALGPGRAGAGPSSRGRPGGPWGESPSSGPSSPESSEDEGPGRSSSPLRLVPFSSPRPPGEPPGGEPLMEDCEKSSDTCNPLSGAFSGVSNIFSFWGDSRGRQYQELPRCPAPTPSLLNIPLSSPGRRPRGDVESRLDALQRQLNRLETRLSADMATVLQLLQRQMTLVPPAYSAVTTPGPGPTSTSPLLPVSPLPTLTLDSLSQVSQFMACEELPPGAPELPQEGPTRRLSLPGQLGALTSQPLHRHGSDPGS

Compound | hERG current change (%, negative = inhibition) at 10uM
CCC(CC)c1nnc(NC(=O)c2nc3nc(C)cc(C)n3n2)s1 | 8.09%
CCOC(=O)Cn1nc(C)c(NC(=O)c2ccc([N+](=O)[O-])c(C)c2)c1C | 10.2%
COc1ccc2cc(CCNC(=O)CCc3ccccc3)c(=O)[nH]c2c1 | -0.519%
CCc1ccccc1NC(=O)N1C2CCCC1CC(NC(C)=O)C2 (stereo not drawn) | 21.4%
O=C1c2ccccc2C(=O)c2cc(S(=O)(=O)Nc3ccccc3)ccc21 | 8.24%
CCN(CC(=O)NC(C)(C)C)C(=O)CCl | -0.283%
CSCCC(NC(=O)c1ccccc1Cl)C(=O)NNC(=O)c1csc(N2CCOCC2)n1 (stereo not drawn) | -29.9%
Cc1ccc(C(=O)Nc2ccccc2Oc2ccccc2)o1 | -4.72%
CC(=O)c1ccc(NC(=O)C2CC(=O)N(Cc3ccccc3)C2)cc1 (stereo not drawn) | 13.4%
CCOC(=O)/C(C#N)=C/c1cc(C)n(-c2ccc(C)cc2)c1C | 10.4%
CC(C)(C)c1ccc(C(=O)NN=C2CCCC2)cc1 | 9.99%
CCCc1cc(C(=O)N/N=C/c2ccc(CC)s2)c2ccccc2n1 | 6.64%
NC(=O)CCC(=O)N1CCCC(C(=O)c2ccc3c4c(cccc24)CC3)C1 (stereo not drawn) | 2.05%
O=C(CNS(=O)(=O)c1cccs1)N1CCN(c2ccccc2F)CC1 | 5.12%
CCCc1nc(N)sc1C(=O)OCC | 2.82%
CCOc1ccc(-n2c(SCC(=O)Nc3cc(OC)c([N+](=O)[O-])cc3C)nc3ccccc32)cc1 | 12.3%
CCC(C)(C)n1nnnc1C(CC(C)C)N1CCC(C(N)=O)CC1 (stereo not drawn) | 2.14%
C#CCOC(=O)CN1C(=O)c2cccc3cccc(c23)C1=O | -0.379%
COc1cc(-c2nc3ccc4ccccc4c3c3c2CCC3)cc(OC)c1O | -5.42%
O=C(NC(=C(Cl)Cl)P(=O)(c1ccccc1)c1ccccc1)c1ccccc1 | 6.6%
Cc1nn2c(COc3ccc(NC(=O)c4ccccc4)cc3)nnc2c2ccccc12 | 4.38%
CCOP(=O)(OCC)C(Nc1ccccn1)c1ccc(F)cc1 (stereo not drawn) | 5.13%

Compound | hERG current change (%, negative = inhibition) at 10uM
O=C(c1ccc(F)cc1)N1CCN(Cc2ccccc2)CC1 | 0.241%
CCC(C)c1ccccc1OCC(=O)NN1C(=O)c2ccccc2C1=O (stereo not drawn) | -35.2%
COc1cccc(N2C(=O)C3CCCN3C2=S)c1 (stereo not drawn) | 21.3%
O=c1[nH]c(=O)n([C@H]2C[C@H](O)[C@@H](CO)O2)cc1I | 17.6%
CC(=O)Nc1ccc(NC(=O)C(C)OC(=O)/C=C/c2cn(-c3ccccc3)nc2-c2cccnc2)cc1 (stereo not drawn) | 6.73%
Cc1ccc(CNC(=O)CCCCCNc2nc(=S)[nH]c3ccccc23)cc1 | -15.7%
COc1ccc(Cc2nnc(SCC(=O)NC3CCCCC3)n2C)cc1 | 11.4%
O=C(NCC1CCCO1)c1ccc2c(c1)N(Cc1ccc(F)cc1)CCS2 (stereo not drawn) | -20.6%
CCOC(=O)CNC(=O)N1CCCC(Cc2ccccc2)(C(=O)OCC)C1 (stereo not drawn) | 6.26%
Cc1nc2cc(NC(=O)N3c4ccccc4CC3C)ccc2o1 (stereo not drawn) | 0.791%
CCC(C)NC(=O)c1ccccc1NC(=O)Nc1ccccc1 (stereo not drawn) | 3.24%
O=C(CCNC(=O)c1ccccc1Cl)OCC(=O)c1ccccc1 | 18.1%
CSCC[C@H](NC(=O)C(C)Oc1ccc(Cl)cc1)c1nc2ccccc2[nH]1 (stereo partly drawn) | -7.16%
O=C(Cc1cccs1)Nc1nc(-c2cccnc2)cs1 | -3.68%
CCCn1nc(NC(=O)c2ccccn2)c2cc3cc(C)ccc3nc21 | -21%
O=C(CCc1nc2ccccc2[nH]c1=O)N/N=C/c1ccccc1 | -0.633%
COc1cc(/C=C(\C#N)C(=O)NCC2CCCO2)cc(OC)c1OC (stereo not drawn) | 0.582%
O=C(CO)N/N=C/c1ccc(Cl)cc1 | 19.8%
O=C(O)Cc1ccc2c(c1)N(S(=O)(=O)c1cccs1)CC(C(=O)O)O2 (stereo not drawn) | 22.7%
COc1ccc(CNc2ccc3cn[nH]c3c2)c(OC)c1OC | -6.79%
COC(=O)CSc1nc(N)c(C#N)c(-c2ccc(O)cc2)c1C#N | -2.55%
Cc1ccc(N2C(=O)CC(Nc3ccccc3)C2=O)cc1 (stereo not drawn) | 5.66%

Compound | hERG current change (%, negative = inhibition) at 10uM
CCCCc1ccc(N2C(=NC(=O)C3CCCO3)SC3CS(=O)(=O)CC32)cc1 (stereo not drawn) | -56.5%
COCc1c(C(=O)N2CCc3ccccc32)oc2ccccc12 | 7.3%
COc1ccc(OC2C(=O)N(Cc3ccc4c(c3)OCO4)C2c2sccc2C)cc1 (stereo not drawn) | -5.31%
CN1CC(c2ccccc2)C2(SC(=S)N(Cc3ccco3)C2=O)C12C(=O)Nc1ccccc12 (stereo not drawn) | 8.32%
O=C(NCC(=O)N(c1ccccc1F)C(C(=O)NC1CCCC1)c1cccnc1)c1ccco1 (stereo not drawn) | -0.398%
Cc1cc(C(=O)Nc2ccccc2Cl)c2ccccc2n1 | -2.16%
Cn1cnnc1Sc1ccc(C(=O)NCCC(c2ccccc2)c2ccccc2)cc1[N+](=O)[O-] | -74.3%
O=C(c1ccco1)N1CCN(C(=O)C2CC(c3ccc(F)cc3)=NO2)CC1 (stereo not drawn) | -72.5%
CC(C)CN(C(=O)CN1C(=O)NC2(CCc3ccccc32)C1=O)C1CCS(=O)(=O)C1 (stereo not drawn) | 4.4%
COc1cc(C(=O)NCC(=O)N/N=C/c2ccc(OC(=O)c3ccco3)cc2)cc(OC)c1OC | -8.84%
COc1ccc2c(c1)C(=O)[C@@H](O)[C@H](c1ccc(OC)c(Br)c1)O2 | 12.4%
Cc1cc(NC(=O)c2noc3c2CCCC3)no1 | -1.76%
COC(=O)c1ccccc1N/C=C/C(=O)c1ccc(Br)cc1 | 16.1%
CC(C)c1nc2oc3c(NCc4ccccn4)ncnc3c2c2c1COC(C)(C)C2 | 5.62%
COC(=O)[C@@H](N)CCCN=C(N)N[N+](=O)[O-].Cl | 8.63%
COc1cc2nc(SCc3ccc(C(F)(F)F)cc3)n(Cc3cccs3)c(=N)c2cc1OC | -1.47%
COc1ccc(C(=O)N/C(=C\c2cn(S(=O)(=O)N(C)C)c3ccccc23)C(=O)NCCCN2CCOCC2)cc1 | -4%
Cc1ccc(C(=O)NCc2ccc(F)cc2)cc1NC1=NC2CS(=O)(=O)CC2S1 (stereo not drawn) | 6.87%
O=C(NCCN1CCN(c2ccccc2F)CC1)C1CCCN(S(=O)(=O)c2cnc[nH]2)C1 (stereo not drawn) | -3.59%
CC1=C(C(=O)Nc2ccc([N+](=O)[O-])cc2)C(c2cccc(C(F)(F)F)c2)NC(=S)N1c1ccccc1 (stereo not drawn) | -1.13%
CCOc1ccc(Oc2c(C)oc3cc(O)ccc3c2=O)cc1 | -4.02%
CCCCn1nnnc1SCC(=O)Nc1ccc(C)cc1 | 2.26%

Compound | hERG current change (%, negative = inhibition) at 10uM
C=CCN=C1S/C(=C\c2ccc(N(C)C)cc2)C(=O)N1CC=C | 16.7%
CC(OC(=O)CC1CCCC1)C(=O)Nc1ccc(Cl)cn1 (stereo not drawn) | -25%
CC(C)(C)CN1CCNC(=O)C1CC(=O)N1CCN(c2ccccc2)CC1 (stereo not drawn) | 5.64%
Cc1ccc(Cc2nc(-c3ccncc3)no2)cc1 | -13.6%
C=CCn1c(=NC(=O)CN2C(=O)CCC2=O)sc2cccc(OC)c21 | -29.3%
Cc1ccsc1C(=O)NCCc1ccc(S(N)(=O)=O)cc1 | -2.68%
O=C(c1ccc2c(c1)N(Cc1ccccc1F)C(=O)c1ccccc1S2(=O)=O)N1CCCC1 | 1.89%
CN(CC(=O)Nc1cccc2ccccc12)c1ccc(S(=O)(=O)N2CCOCC2)cn1 | 11.8%
COc1cccc(C(=O)Nc2cccnc2)c1OC | -0.88%
Cc1ccc(CNC(=O)C2CCN(S(=O)(=O)N3CCOCC3)CC2)cc1 | -9.34%
CCCn1c(N)c(C(=O)COC(=O)CNC(=O)c2ccc(C)c(C)c2)c(=O)n(C)c1=O | -78.1%
CCOC(=O)c1nn(-c2ccc(F)cc2)c2c1CC/C2=C/c1ccccc1 | 8.7%
CCCc1cc(=O)[nH]c(SCC(=O)Nc2oc(C)c3c(C)n[nH]c(=O)c23)n1 | 19.3%
Cc1cccc(-c2nc(-c3ccncc3)no2)c1 | 11.1%
Cc1cnc(C(=O)Nc2cccc(-c3nnc4n3CCCCC4)c2)cn1 | 2.61%
CCOC(=O)c1oc2ccc(S(=O)(=O)n3nc(-c4ccccc4)cc3N)cc2c1C | 16%
C=CCn1c(Cc2cccs2)nnc1SCC(=O)NCc1ccco1 | -1.47%
O=C(NN=C1C2CC3CC(C2)CC1C3)c1cccs1 | 9.04%
COc1ccc(C2CC(=O)C(C=NCCO)=C(O)C2)cc1OC (stereo not drawn) | 4.15%
CCCN(C(=O)COc1ccc(C(C)=O)cc1OC)C1CCS(=O)(=O)C1 (stereo not drawn) | 7.65%
O=C(Cn1ccc(NC(=O)OCc2ccccc2)nc1=O)NCCCn1ccnc1 | 6.72%
